Assay results published in PMC6919601, “Identification of Plasmodium dipeptidyl aminopeptidase allosteric inhibitors by high throughput screening” (PLoS ONE, 2019).
The whole screen tested about 110,000 compounds, of which about 230 (0.21%) showed an effect of 50% or more. The list shows a part of the results.

Target: DPAP1 (Plasmodium falciparum, UniProt Q8IIJ9)
Experiment: primary screen, percent inhibition; read by cleavage of a fluorogenic dipeptide substrate; higher = more effect of the substance
Parameters: species or system P. falciparum D10 trophozoite lysates; single well
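Also: 30 min substrate incubation versus DMSO and 10 µM JCP410 controls.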

Chain of DPAP1 (Q8IIJ9 whole entry, looked up): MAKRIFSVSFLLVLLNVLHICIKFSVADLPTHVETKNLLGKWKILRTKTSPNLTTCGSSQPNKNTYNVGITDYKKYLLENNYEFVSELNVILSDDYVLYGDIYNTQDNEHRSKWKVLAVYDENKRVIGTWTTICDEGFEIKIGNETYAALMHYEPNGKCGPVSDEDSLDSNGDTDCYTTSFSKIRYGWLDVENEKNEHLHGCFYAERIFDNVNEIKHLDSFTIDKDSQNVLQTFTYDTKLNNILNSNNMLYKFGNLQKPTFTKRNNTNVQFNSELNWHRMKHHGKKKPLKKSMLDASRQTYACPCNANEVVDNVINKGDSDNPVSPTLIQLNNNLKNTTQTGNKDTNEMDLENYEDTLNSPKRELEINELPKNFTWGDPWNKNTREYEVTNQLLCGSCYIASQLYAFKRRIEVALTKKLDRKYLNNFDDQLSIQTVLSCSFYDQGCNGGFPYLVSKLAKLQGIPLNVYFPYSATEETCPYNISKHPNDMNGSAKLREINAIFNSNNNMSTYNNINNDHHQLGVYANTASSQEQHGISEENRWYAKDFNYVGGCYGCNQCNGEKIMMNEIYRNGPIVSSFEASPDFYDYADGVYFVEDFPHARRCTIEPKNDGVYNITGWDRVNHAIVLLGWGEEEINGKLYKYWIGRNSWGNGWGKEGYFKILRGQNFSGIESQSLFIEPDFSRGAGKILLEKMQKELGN

SMILES | % Inhibition @ 10 uM [%]
CCCc1[nH]nc2c1C(c1ccc(OC)c(OC)c1)C(C#N)=C(N)O2 (stereo not drawn) | -6.27
CC1=C(C(=O)Nc2ccc(F)cc2)C(c2ccc(Cl)cc2)n2ncnc2N1 (stereo not drawn) | 4.75
COc1ccccc1C1N(c2ccccn2)C(=O)C2CCCN21 (stereo not drawn) | -2.29
COc1ccc(-c2cc(C(=O)N(C)Cc3ccccc3)no2)cc1 | 0.723
CS(=O)(=O)N(CC(=O)NCc1ccc(Cl)cc1)c1ccc(F)cc1 | -1.59
CCCNC1=N/C(=C\c2ccccc2)C(=O)N1c1ccc(Cl)cc1 | 0.381
Clc1ccc(OCCCCN2CCCCC2)cc1 | 5.06
CC(=O)c1ccc(N/C=C\C(=O)c2ccc3c(c2)OCO3)cc1 | 0.777
CC1=C(c2cccc(Br)c2)S(=O)(=O)N=C1NC(C)C12CC3CC(CC(C3)C1)C2 (stereo not drawn) | 0.623
O=C(Cn1nc(C(F)(F)F)cc1C1CC1)Nc1ccc(F)c(F)c1 | 0.709
Cc1ccc(OC(C)C(=O)Nc2cccc(C)c2)cc1 (stereo not drawn) | -0.95
COc1ccc(Cl)cc1N(CC(=O)Nc1ccccc1)S(C)(=O)=O | 2.02
CCCNC(=O)c1nn2c(c1Br)NC(c1cccs1)CC2C(F)(F)F (stereo not drawn) | -4.16
O=[N+]([O-])c1ccccc1CN1CCc2ccccc2C1 | 4.81
Cc1nc2cc(Cl)ccc2n1CCO | 0.467
CCOC(=O)c1c(C)nc2ccccn12 | -6.32
Cc1nc2ccc(S(=O)(=O)NCC(=O)N(C)C3CCCCC3)cc2s1 | -0.72
C=CCC1NC(C)(C)Cc2cc(OC)c(OC)cc21 (stereo not drawn) | 0.177
CCCc1nnc(NC(=O)CSc2nc(O)c(C#N)c(-c3cccc(OC)c3)n2)s1 | 8.36
COc1ccc(OC)c(CCNC(=O)c2noc3c2COc2ccccc2-3)c1 | 59.5
Cc1ccc(-c2noc(CN(C(=O)CCCN3C(=O)c4ccccc4C3=O)C3CCCCC3)n2)cc1 | -2.99
O=C(Cn1cc2c(n1)CCCC2)NCc1cccc(Cl)c1 | 0.137
O=C(CSc1nnc(-c2ccc(Cl)s2)o1)N1CCOCC1 | -1.59
CCN(Cc1ccccc1)C(=O)c1oc2ccc(S(=O)(=O)N3CCCCCC3)cc2c1C | -2.26
CN(C)C(=O)N1CCCC(C(=O)NCc2ccc(F)cc2Cl)C1 (stereo not drawn) | -1.34

SMILES | % Inhibition @ 10 uM [%]
Cc1ccc(C)c(NC(=O)CSc2ncn(-c3ccccc3)n2)c1 | -5.45
O=C(O)c1ccc(CNc2nc3ccccc3nc2NS(=O)(=O)c2ccc(Cl)cc2)cc1 | -3.95
Cc1nc(N2CCOCC2)nc(O)c1CCOc1ccccc1 | 9.03
COc1ccc(-c2nnc(NCc3nc4ccccc4[nH]3)c3ccccc23)cc1 | 2.18
COc1ccc(C2CC(c3c(O)cc(C)oc3=O)=NCCS2)cc1O (stereo not drawn) | -1.8
CCOc1cc(Br)c(/C=C2\SC(=O)N(CC)C2=O)cc1OCC | -7.97
COc1cccc(/C=C2\SC(N3CCOCC3)=NC2=O)c1OC | 4.85
Cc1ccccc1CSc1nnc2c(n1)[nH]c1ccc(S(=O)(=O)N3CCOCC3)cc12 | -3.78
COc1cccc(C(=O)N2CCN(Cc3ccc(Cl)cc3)CC2)c1 | -1.98
CSc1nc2c(cc1C#N)CCC2 | 0.317
CC1CC(C)CN(CCCNC(=O)c2ccc(CSc3nc4ccncc4[nH]3)cc2)C1 (stereo not drawn) | 1.8
COc1cc(OC)c(OC)cc1CN1CCN(C2C3CC4CC(C3)CC2C4)CC1 (stereo not drawn) | 2.6
Cc1cccc(CNc2nc3nc(C)c(Cc4ccccc4)c(O)n3n2)c1 | 2.62
CC(C)CC(O)CNC(C)(C)C (stereo not drawn) | 1.96
CCc1ccc(-c2csc(-c3ccccn3)n2)cc1 | 5.7
COCCNC1CCN(Cc2ccccc2)CC1 | 1.57
Cc1ccc(-n2ncc3c(NCCCn4ccnc4)ncnc32)c(C)c1 | 1.58
CCCC[C@H](NC(=O)[C@H](CC(C)C)NC(=O)OCc1ccccc1)C(=O)c1nnc(-c2ccco2)o1 | 12.5
COCCN(CCNc1nc2ccccc2c2nc(-c3cccnc3)nn12)Cc1ccco1 | 0.981
CC(C)(C)c1ccc(C(=O)N[C@H](C(=O)NCC#N)C2CCCC2)cc1 | -6.46
Brc1ccc2ncnc(N3CCOCC3)c2c1 | -8.88
O=S(=O)(O)c1nc2ccccc2n1CCOc1ccccc1F | -5.4
CC1CN(C(=O)Cn2cc(SCC(=O)NCc3ccccc3)c3ccccc32)CC(C)O1 (stereo not drawn) | -1.68
O=c1nc2s/c(=C\c3ccccc3)c(=O)n2nc1Cc1ccccc1 | 0.222
O=C1SC(C2SC(=O)N(Cc3ccc(F)cc3)C2=O)C(=O)N1Cc1ccc(F)cc1 (stereo not drawn) | 5.21

SMILES | % Inhibition @ 10 uM [%]
CCN(CC)S(=O)(=O)c1ccc(N/C=C2/C(=O)NC(=O)N(c3cccc(Cl)c3)C2=O)cc1 | 4.67
CC(C(=O)N1CC2(C)CC1CC(C)(C)C2)N1C(=O)c2ccccc2C1=O (stereo not drawn) | -3.09
Cc1ccc2occ(/C=C/C(=O)c3cc4ccc5ccccc5c4oc3=O)c(=O)c2c1 | 2.95
CCOC(=O)c1c(NC(=O)COCc2cc(-c3ccc(F)cc3)on2)sc2c1CCCC2 | -3.81
CCN1CCN(C(CNC(=O)c2cccs2)c2cccnc2)CC1 (stereo not drawn) | -1.72
CCOc1ccc(C(=O)Nc2ccccn2)cc1Br | 6.11
CCCC[C@H](NC(=O)C(CC(C)c1ccccc1)NC(=O)c1ccc(-c2ccccc2Cl)cc1)C(=O)CC(=O)N1CCCC1 (stereo partly drawn) | -1.82
CC(C)CNC(=O)CSc1nc(-c2ccccc2)cc(C(F)(F)F)n1 | -1.72
Nc1n[nH]c(CNC(=O)c2ccccc2)n1 | 4.4
COc1ccc2c(CNCCC3=CCCCC3)c(C(=O)O)n(Cc3ccccc3C)c2c1 | 2.54
COc1ccc(OC)c(/C=C2/N=C(c3cccc4ccccc34)OC2=O)c1 | -6.62
CCc1nnc(NC(=O)C2CCCN(C(=O)c3cnn(-c4ccccc4)c3-n3cccc3)C2)s1 (stereo not drawn) | -0.281
Cc1ccc(C)c(OCCNS(=O)(=O)c2cccc(C(F)(F)F)c2)c1 | 2.99
COc1ccc(CN2C(=O)c3ccc(F)cc3C2=O)cc1 | -2.12
N#CCCN(CC1COc2ccccc2O1)C(=O)c1ccccc1 (stereo not drawn) | -0.641
COc1ccc(NC(=O)CCc2ccccc2)cc1NC(=O)c1ccco1 | 9.5
COc1cc(C=C2C(=O)OC(C)(C)OC2=O)ccc1OCc1ccccc1 | -9.32
CCOc1ccccc1C(=O)NCc1ccco1 | -5.82
Cc1ccc2c(c1)c1c(c(=O)n(Cc3ccccc3)c(=O)n1CC(=O)NCc1ccccc1)n2C | 1.44
COc1ccc(-c2cc(C)no2)cc1S(=O)(=O)NC1CCN(Cc2ccccc2)CC1 | -0.615
Cn1c(=O)n(Cc2cccc(F)c2)c(=O)c2c1ncn2Cc1ccccc1 | 0.727
Cc1[nH]c2ccccc2c1/C=C1\C(=N)N2N=C(S(=O)(=O)CC(C)C)SC2=NC1=O | -3.35
CC(C[C@H](NC(=O)OCc1ccccc1)C(=O)NCC#N)c1c(F)cccc1F (stereo partly drawn) | 0.079
Cc1nc(NCCc2cccs2)c2c3c(sc2n1)CCCC3 | -0.999
COc1cc2c(cc1OC)C(C)N(CCC(N)=O)CC2 (stereo not drawn) | -1.82

SMILES | % Inhibition @ 10 uM [%]
C=C(C)Cn1c(SCC(N)=O)nc2sc3c(c2c1=O)CCCC3 | -0.725
COc1cc(/C=C2\N=C(c3cccc(C)c3OC)OC2=O)cc(OC)c1OC | 7.46
CN1CC=C(/C=C/c2ccc3c(c2)OCO3)CC1 | 0.847
Cc1c2cnn(CC(=O)NCCCN3CCCCC3C)c(=O)c2c(C)n1Cc1ccccc1F (stereo not drawn) | -0.447
COc1ccccc1N1C(=O)CC(N2CCN(C)CC2)C1=O (stereo not drawn) | -6.08
Cc1nc(Cl)sc1C(=O)Nc1ccc2ccccc2c1 | -7.4
Cc1nn(CC(=O)N2CCC(N3CCCCC3)CC2)c(=O)c2c1sc1ccccc12 | -0.698
COc1cc(OC)cc(C(=O)Nc2cc(OC)ccc2OC)c1 | -4.15
Cc1c(Cl)ccc(S(=O)(=O)N2CCN=C2c2ccccc2)c1Cl | 5.49
O=c1oc2ccc3ccccc3c2cc1-c1cn2cccnc2n1 | -2.6
COc1ccc(CCNCc2c(C(=O)O)c(C)n(Cc3ccccc3C)c2C)cc1OC | -0.23
Cc1c(CNCCc2ccccc2)c(C(=O)O)c(C)n1Cc1ccc(F)cc1Cl | -3.67
Cc1ccc2c(=O)cc(C(=O)NCc3ccc4c(c3)OCO4)oc2c1C | -3.24
N#CC1=C2SCN(Cc3cccnc3)CN2C(=O)CC1c1ccc(F)cc1 (stereo not drawn) | 55.3
O=C1NC(=S)N/C1=C\c1cc2c(c([N+](=O)[O-])c1)OCO2 | 3.83
O=C1C2CC=CCC2C(=O)N1c1ccc(Cl)cc1O (stereo not drawn) | 2.46
Clc1ccc(CN2CCN(c3ncccn3)CC2)cc1Cl | -4.61
Cc1cc(C)n(-c2cc(-n3nc(C)cc3C)ncn2)n1 | -3.82
CCOc1ccccc1/C=C1\S/C(=N/c2ccc(C(=O)O)cc2)N(C)C1=O | -3.87
COc1cc(C2C(C#N)=C(N)OC3=C2C(=O)CC(c2ccco2)C3)cc(OC)c1OC (stereo not drawn) | -2.83
O=C(O)C1CC(=O)N(CCOc2ccccc2)C1 (stereo not drawn) | -3.78
CC(C)CC(NC(=O)c1cccc(NC(=O)NCc2ccccn2)c1)C(=O)NCC#N (stereo not drawn) | -2.35
Cn1cnc2c(=O)oc3ccc(S(=O)(=O)N4CCC(Cc5ccccc5)CC4)cc3c21 | 3.8
CCOc1ccc(CC(=O)Nc2sc3c(c2C#N)CCCC3)cc1OCC | -6.84
